The assay deals with GTPase KRas (Homo sapiens) (UniProt P01116). Briefly: Covalent labelling of cysteine mutants by fragments, read by mass spectrometry (AID 2202238). Also on record: protein at 5 µM with 500 µM competing thiol for 1.5 h. Conditions: KRAS G12D cysteine mutants, disulfide tethering, MALDI-TOF labeling, stronger effect = higher value, fragment at 500 µM.
[1] abbreviates: measured here: G60C mutant labeling.
[2] abbreviates: measured here: G75C mutant labeling.
[3] abbreviates: measured here: H94C mutant labeling.
The mark [4] stands for this setting: measured here: I36C mutant labeling.
[5] abbreviates: measured here: L120C mutant labeling.
Setting [6] is: measured here: M67C mutant labeling.
Setting [7] is: measured here: M72C mutant labeling.
Setting [8] is: measured here: N26C mutant labeling.
Setting [9] is: measured here: N86C mutant labeling.
Where [10] appears, read: measured here: P121C mutant labeling.
[11] abbreviates: measured here: S122C mutant labeling.
Setting [12] is: measured here: S136C mutant labeling.

Some of the results follow. Further columns of the screen follow, without active or inactive calls.

Sequence of UniProt P01116 (P01116 whole entry, looked up, the tested form may be a part): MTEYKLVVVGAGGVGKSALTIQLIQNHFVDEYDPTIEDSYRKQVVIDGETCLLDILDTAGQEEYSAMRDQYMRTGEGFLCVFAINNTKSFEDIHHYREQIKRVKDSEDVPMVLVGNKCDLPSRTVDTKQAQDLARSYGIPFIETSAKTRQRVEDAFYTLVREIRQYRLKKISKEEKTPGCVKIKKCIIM

On to `O=C(NC1(C(=O)NCCS)CCCC1)c1ccc2[nH]ncc2c1`, for which the percent labeling runs as follows: under setting [1], 42.1%; under setting [2], 18.3%; under setting [3], 35.8%; under setting [4], 28%; under setting [5], 42.5%; under setting [6], 41.1%. Besides, the percent labeling is 27.8% under setting [7]; 39.1% under setting [8]; 27.8% under setting [9]; 27.1% under setting [10]; 27.1% under setting [11]; 35.6% under setting [12].

Turning to `Cc1ccc(N2CCCC2=O)c(C(=O)NCCS)c1`, the percent labeling is, setting by setting: under setting [1], 31.5%; under setting [2], 10.3%; under setting [3], 41.7%; under setting [4], 21.4%; under setting [5], 37.2%; under setting [6], 29.3%. The same compound yielded a percent labeling under setting [7] of 15.2%; a percent labeling under setting [8] of 34.5%; a percent labeling under setting [9] of 26.3%; a percent labeling under setting [10] of 34.6%; a percent labeling under setting [11] of 31.9%; a percent labeling under setting [12] of 43.6%.

In the case of `O=C(CCS)Nc1cnn2cc(Br)cnc12`, the percent labeling amounted to 9.7% under setting [2]; 28.3% under setting [3]; 31.1% under setting [4]; 22.4% under setting [5]; 24.3% under setting [6]; 32.6% under setting [7]. Besides, the percent labeling reads like this: under setting [9], 10.9%; under setting [10], 20.8%; under setting [11], 24.3%; under setting [12], 45.4%.

`Cc1c(CN2CCSCC2)cccc1NC(=O)CCS`: the percent labeling runs as follows: under setting [2], 13.9%; under setting [3], 36.1%; under setting [4], 42.3%; under setting [5], 30.8%; under setting [6], 41.1%; under setting [7], 25.1%. Further, the percent labeling reads like this: under setting [9], 22.9%; under setting [10], 31.3%; under setting [11], 24.7%; under setting [12], 59.1%.

`CN1Cc2ccc(NC(=O)CCS)cc2C1=O`: the percent labeling reads like this: under setting [2], 15.4%; under setting [3], 21.4%; under setting [4], 36.1%; under setting [5], 28.3%; under setting [6], 25.3%; under setting [7], 35.8%. This compound registered a percent labeling under setting [9] of 31%, a percent labeling under setting [10] of 24.1%, a percent labeling under setting [11] of 32.6% and a percent labeling under setting [12] of 46.3%.

As to `Cn1c2c(ccc1=O)C(NC(=O)CCS)CCC2` (centres undefined), the percent labeling was determined as 8.8% under setting [2]; 30.4% under setting [3]; 34.3% under setting [4]; 26.7% under setting [5]; 41.5% under setting [6]; 14.5% under setting [7]. Moreover, the percent labeling by setting is: under setting [9], 11.1%; under setting [10], 31.4%; under setting [11], 31.7%; under setting [12], 47.3%.

With `CN(CCO)C1(CNC(=O)CCS)CCCCC1`, the percent labeling under setting [2] is 7.4%; the percent labeling under setting [3] was found to be 31.5%; the percent labeling under setting [4] is 45.1%; the percent labeling under setting [5] was found to be 25.1%; the percent labeling under setting [6] amounted to 41.8%; the percent labeling under setting [7] amounted to 12.7%. The percent labeling by setting is: under setting [9], 14.4%; under setting [10], 26.9%; under setting [11], 24.7%; under setting [12], 53.5%.

For `O=C(CNC(=O)N1CCc2ccccc2C1)NCCS`, the percent labeling is, setting by setting: under setting [1], 27.6%; under setting [2], 12.8%; under setting [3], 27.2%; under setting [4], 22.1%; under setting [5], 37%; under setting [6], 31.7%. In addition, the percent labeling was determined as 29% under setting [7]; 33.8% under setting [8]; 18.5% under setting [9]; 29.1% under setting [10]; 24.4% under setting [11]; 31.2% under setting [12].

As for `Cc1nc2nnnn2c(C)c1CCC(=O)NCCS`, the percent labeling runs as follows: under setting [1], 41.5%; under setting [2], 11.9%; under setting [3], 26.5%; under setting [4], 41%; under setting [5], 26.2%; under setting [6], 31.8%. Moreover, the percent labeling by setting is: under setting [7], 17.4%; under setting [8], 33.5%; under setting [9], 23.8%; under setting [10], 32.5%; under setting [11], 25.3%; under setting [12], 36.9%.

For `O=C(NCCS)c1ccc2ccccc2c1O`, the percent labeling runs as follows: under setting [1], 34.7%; under setting [2], 24%; under setting [3], 14.5%; under setting [4], 17.1%; under setting [5], 18.1%; under setting [6], 11.4%. Besides, the percent labeling runs as follows: under setting [7], 59.2%; under setting [8], 30.1%; under setting [9], 13.7%; under setting [10], 28.1%; under setting [11], 6.3%; under setting [12], 28.6%.

With `O=C(CCS)Nc1ccn(-c2ncccc2C(F)(F)F)n1`, the percent labeling reads like this: under setting [2], 15.6%; under setting [3], 41%; under setting [4], 32.7%; under setting [5], 35.1%; under setting [6], 32.2%; under setting [7], 42.8%. Besides, the percent labeling runs as follows: under setting [9], 32.1%; under setting [10], 32.8%; under setting [11], 28.1%; under setting [12], 54.8%.

Take `Cc1ccc2[nH]cc(CCC(=O)NCCS)c2c1`: the percent labeling is 33.5% under setting [1]; 5.1% under setting [2]; 17.9% under setting [3]; 14.2% under setting [4]; 20.4% under setting [5]; 17.6% under setting [6]. The percent labeling under setting [7] was found to be 24.7%; the percent labeling under setting [8] was 20.6%; the percent labeling under setting [9] is 9%; the percent labeling under setting [10] was 18.7%; the percent labeling under setting [11] was 14%; the percent labeling under setting [12] turned out to be 26.3%.

As for `CC(C)(C)CCC1(O)CC(C(=O)NCCS)C1` (centres undefined), the percent labeling is 29.7% under setting [1]; 11.6% under setting [2]; 27.2% under setting [3]; 17.4% under setting [4]; 28.9% under setting [5]; 23.7% under setting [6]. The percent labeling reads like this: under setting [7], 17.8%; under setting [8], 42.2%; under setting [9], 24.5%; under setting [10], 29.4%; under setting [11], 28.3%; under setting [12], 40.3%.

As for `COc1ccc2onc(CC(=O)NCCS)c2c1`, the percent labeling runs as follows: under setting [1], 42.6%; under setting [2], 3.5%; under setting [3], 21.3%; under setting [4], 27%; under setting [5], 32.6%; under setting [6], 34.3%. Moreover, the percent labeling stood at 49% under setting [7]; 35.3% under setting [8]; 19.8% under setting [9]; 23.5% under setting [10]; 25.9% under setting [11]; 40.6% under setting [12].

Consider `Cc1nc2c3ccccc3nn2c(C)c1CCC(=O)NCCS`, for which the percent labeling is 27.6% under setting [1]; 10.7% under setting [2]; 16.8% under setting [3]; 21.4% under setting [4]; 13.6% under setting [5]; 30.1% under setting [6]. Besides, the percent labeling runs as follows: under setting [7], 12.7%; under setting [8], 26.2%; under setting [9], 11.6%; under setting [10], 16.3%; under setting [11], 8.1%; under setting [12], 18.6%.

As to `O=C(CCS)N1CCC(n2ccnn2)CC1`, the percent labeling reads like this: under setting [2], 14.3%; under setting [3], 29.6%; under setting [4], 43.5%; under setting [5], 31.2%; under setting [6], 37.8%; under setting [7], 25%. Besides, the percent labeling runs as follows: under setting [9], 31.5%; under setting [10], 40.6%; under setting [11], 40.4%; under setting [12], 60.3%.

As to `O=C(CCS)NCCn1cnc2ccccc2c1=O`, the percent labeling is, setting by setting: under setting [2], 9.6%; under setting [3], 31.2%; under setting [4], 42.4%; under setting [5], 31.5%; under setting [6], 32.4%; under setting [7], 20.2%. This compound returned a percent labeling under setting [9] of 20.6%, a percent labeling under setting [10] of 31.9%, a percent labeling under setting [11] of 31.5% and a percent labeling under setting [12] of 48.4%.

Regarding `Cc1sc(-n2cccc2)c(C(=O)NCCS)c1C`, the percent labeling was 54.1% under setting [1]; 17.5% under setting [2]; 24.6% under setting [3]; 13.1% under setting [4]; 23.6% under setting [5]; 26.7% under setting [6]. The same compound came in with a percent labeling under setting [7] of 33.9%; a percent labeling under setting [8] of 31.8%; a percent labeling under setting [9] of 16%; a percent labeling under setting [10] of 21.1%; a percent labeling under setting [11] of 16.2%; a percent labeling under setting [12] of 31.4%.

As to `O=C(CCS)NCc1ncc2c(n1)CCOC2`, the percent labeling runs as follows: under setting [2], 4%; under setting [3], 11.9%; under setting [4], 21.5%; under setting [5], 24.2%; under setting [6], 11.8%; under setting [7], 4.2%. The percent labeling by setting is: under setting [9], 4.3%; under setting [10], 10.4%; under setting [11], 9.8%; under setting [12], 16%.

`O=C(CCS)N1CCC2=C(C=NS(=O)(=O)N2)C1` gave a percent labeling under setting [2] of 8.6%; a percent labeling under setting [3] of 14.2%; a percent labeling under setting [4] of 21.2%; a percent labeling under setting [5] of 18.3%; a percent labeling under setting [6] of 20.5%; a percent labeling under setting [7] of 7.3%. In addition, the percent labeling by setting is: under setting [9], 9.1%; under setting [10], 26.4%; under setting [11], 30.7%; under setting [12], 22.4%.

Consider `CN(C)CC1COC2(CCCC2)CN1C(=O)CCS` (centres undefined), for which the percent labeling reads like this: under setting [2], 10%; under setting [3], 40.8%; under setting [4], 43.2%; under setting [5], 28.2%; under setting [6], 43.5%; under setting [7], 20.5%. In addition, the percent labeling under setting [9] is 17.9%, the percent labeling under setting [10] turned out to be 31.7%, the percent labeling under setting [11] stood at 27.3% and the percent labeling under setting [12] stood at 53.8%.

As to `CCc1cc(C(=O)NCCS)ccc1Br`, the percent labeling is 38.3% under setting [1]; 15.4% under setting [2]; 9.9% under setting [3]; 7.4% under setting [4]; 18.9% under setting [5]; 12.6% under setting [6]. The percent labeling by setting is: under setting [7], 24.7%; under setting [8], 28%; under setting [9], 13.1%; under setting [10], 20.1%; under setting [11], 11%; under setting [12], 22%.

With `O=C(NCCS)c1cc2scc(Br)c2[nH]1`, the percent labeling amounted to 33.2% under setting [1]; 15.3% under setting [2]; 16% under setting [3]; 11.3% under setting [4]; 15% under setting [5]; 10.8% under setting [6]. Besides, the percent labeling by setting is: under setting [7], 28.1%; under setting [8], 22.6%; under setting [9], 11.6%; under setting [10], 11.7%; under setting [11], 8.2%; under setting [12], 12.9%.

Turning to `Cc1ccn(-c2ccccc2NC(=O)CCS)n1`, the percent labeling runs as follows: under setting [2], 15.2%; under setting [3], 39%; under setting [4], 39%; under setting [5], 29.7%; under setting [6], 34.5%; under setting [7], 32.9%. Besides, the percent labeling runs as follows: under setting [9], 39.7%; under setting [10], 33.3%; under setting [11], 32.3%; under setting [12], 51.8%.
